Test results published in paper PMC10726135.
Some of the results follow. At the low end of the ranking the order means little. Measured with an extract: partners may take part in the binding.

What follows are sequences tested against T1, HNF4alpha8 (COS-7 nuclear extract) (UniProt P41235-5) (assay: protein-binding microarray). Conditions: COS-7 nuclear extract on double-stranded Agilent 4x180k PBM; binding buffer, salt, pH and temperature not given; high values mean tight binding; double strand, one strand shown; sequences stand for … in …GCCTAGGGAGATTAGAGTATCGGTCGA.
T1 sequence: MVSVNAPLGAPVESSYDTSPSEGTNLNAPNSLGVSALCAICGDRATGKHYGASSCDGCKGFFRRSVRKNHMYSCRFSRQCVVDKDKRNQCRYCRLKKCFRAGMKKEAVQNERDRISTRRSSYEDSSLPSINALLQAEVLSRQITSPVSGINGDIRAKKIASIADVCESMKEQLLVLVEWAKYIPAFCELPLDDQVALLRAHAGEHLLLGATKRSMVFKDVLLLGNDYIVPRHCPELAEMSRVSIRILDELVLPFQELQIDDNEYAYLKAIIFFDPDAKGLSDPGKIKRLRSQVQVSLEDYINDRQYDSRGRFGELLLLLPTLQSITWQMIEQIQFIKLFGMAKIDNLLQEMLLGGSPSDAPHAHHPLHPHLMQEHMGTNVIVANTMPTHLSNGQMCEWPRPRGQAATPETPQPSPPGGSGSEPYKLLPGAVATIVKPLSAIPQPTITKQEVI

Sequence | binding signal (log2 normalized intensity)
CAAAGGTGCAAAGGTTAAAATGCCCTCACA | 5.59
TGTACAAAGCCATCAGCACTGGTTCAAAGT | 2.4
TGAGATAATGCTGGTAAAGCACTTTGCCCC | 5.35
ATTTCTGTTGTTGATTTAACATTTGTGATC | 2.22
CTAGGTAAGCACAGGTTTCTGTCCTGGTCA | 1.94
AGTCAGTGAAGGAGCTGACTAGATTTCTGT | 0.563
TTCAAGTAGAGCTTCACCTCTAAATCTATT | -1.36
TTGGTCTTATTATCTTCAATGATAAGGAAT | 1.05
AAAAATCCTGCCAAACCAGTTCAACAAGAA | -1.33
AACTCTGGAGTTTGCCCTTCACAAATTAGA | 3.5
AGCAGTGACCATCCCAAAGCTTTTTGATTG | -1.26
TGTCAAGATTGAGACATTCATGGCTTTTGT | 0.467
GCTGCCCTGCACCTGGAGCCCTTAGGGTCA | 3.22
TTCATCTCACAGAGTGGAGTCTTCCGTTTG | 0.328
AGTGCATGAATCAACTGTTGTGGACCACGT | 2.2
AGTTGGGAAAAGTAACACAGTAAGAGACTT | -1.32
AAATGAGAATGAGACCTGCTAGGCTGCATT | -1.21
TGGCTGGCTTTAGAGTTGTAGCTCTCAGCT | -1.32
GACCTGGGAATTCAAGGAATGCAGCTCAGA | -1.26
TGCGACAGGGAGATTTCCTGGGAGAGAAAA | -1.37
TGGTAACCGGAGCAAAGGTTACTCTTGTTA | 3.36
ATCTAGTTTCCTAGCTCACTGATAAGAAAG | -1.42
CAACATTGCGCAATGCACACACTTACACAT | -1.31
TACTTTAGCTGCCAGAGGTTCTTTCACAGG | 0.415
TTTCTGCTCTCAACTAGAGATAAACTTTTG | 0.481

Sequence | binding signal (log2 normalized intensity)
CCGCGATTCCCGCCGCCTCCGCTGGGGGAC | -1.37
AATGCGAGAGTACACAGAAGTTAATTTCAA | -1.41
CTTCCCAATCAGAAACCGGGCCAATGGGTT | 0.558
AAGAGGCTGTCAACGGAGGTGGGAAAGACT | -1.38
TGAGCACATTCTTCAATATCAGTGGCACTC | 0.295
CTTCAGCTTGAAAACACAACAAAAGAACTC | -1.37
TCATTTCAGCCTTAACTCAAAAGGCCAAAG | -1.09
GGGGCGATGCTTCCAAAGTCCACAGTCCCC | 3.92
AGGGTTATGGGAAGTGGGGTAAGCAAGGCT | -1.35
TTTGGTACTCTTATCAGCAGTGACTTGAGA | 0.582
GAAACCCTAAACCTGCAAACCTTTGACCTT | 5.96
AAGATAGGAATGTACATAATCTGGACCCAA | 4.38
CAGAGGGAAGAGGAAGCATCCTATAGGCCT | -1.34
CTTACTTGGCCTGTTTGCTGAAGGCCATGC | -0.877
TGCTGTCTGTCTTCGGGCGGCGGCCTCTGG | 0.491
CAGAAAGCTCTTTGCACAGTACTGATCTGG | 0.716
GCCTAGGTATTGAGGGAGCAAAGGGCATGG | 4.47
AAGTCAGGTACTGGTAGCCTGGGCCCCAGG | -0.342
CAAGAATACGGATTCTTAAGGGCAAAGGTT | 6.75
TGACTGTGGTACTCCAAAGGTCAGTTTAAT | 4.74
CCCCACTGTAGTAAGGGAGTGTGGGGTGGT | -0.92
TCTTATTGCCTCATGTTTGCAGAATGGCTG | 0.617
TCTTTGCCCATAGAATCTTAGGAAAGCACA | -1.34
GGCCTTGGGCCACCTGAGACAGTTTATGCC | -1.24
GTTGGTTTCTGGGATTTGTACAAGTGATTG | 1.63

Sequence | binding signal (log2 normalized intensity)
TGATGACGCCACGCCGCTCTTTCTCTTTCA | -1.35
AGAAATATCAGCAAGGAAATAAAAGAGCCT | -1.32
GATCTGGCCAGGCCTGGTTCGGGATTATGG | 0.54
TCTCCTCCACAGAGCACAGGATCCAGAGGT | -1.29
TTACAGGCAATTGATAATGATGTTTACATT | 1.34
GCTGGGCAGAGGGACAACTGAGTTACGTAA | -0.77
ATGTCATGCAGCTAAAAGCAGCATCCCTGA | -1.19
TTGACATAAACAGAAGCAATCACAAGGAAT | -1.37
GTTTTTAAAGGCTTTTAAAGGCTAGTGAAA | -1.3
CCTGAAAGAGAGGAGGCTGAAGACTTTGCA | -1.31
TGCCTTAAGTTGAAGTGAGTTGTTTGTTTT | 1.66
GACCTCATGTAGTCACATACCTATGCAAAC | 1.02
GCACTGGTTCAAAGTGTAGCGCAGCCAGTT | -1.26
GTGACCTTTGACCTCAGAGAGCCGGAAACT | 8.02
TCTGGGGCCTATCTTTCTGTCTCATTCCCT | -1
TGAATGGCTGATTGGCAGGCATTCCACACT | -1.42
CCATATTGACTAAACATTCTTGAATTTCGT | 0.669
AAGCCACAGTACAAAGGTGAGCTTTTATCT | 3.65
TTTGAGTCATTGAGGCTTTGCCTTAGGATT | -0.614
AATTCCTGCTGGGCGTGAACTGTGACTTTT | 2.46
AACAGTGGCTGGCCATGAGTGAGCACTTAA | -1.39
GAAGCTCTGGGAGTGCCCTTGCCGAGAGCG | -1.41
ACAGTCCACAGAAACGCAGTCCTGAAAACA | -1.41
